Experimental data published in patent US12121518B2, “PARP-1 and methods of use thereof” (The Board of Supervisors of Louisiana State University and …, priority 2017, dated 2024).

Legend:
[1] = tested on: advanced colon cancer; conditions: monotherapy or in combination with irinotecan; cited from earlier work
[2] = tested on: MDSCs; test: T-cell suppression assay with MDSCs isolated from MC-38 tumors of treated mice (ex vivo); type: cell-based, mouse; conditions: MDSC/T cell ratio 1:8, no drug in co-culture
Text: Without wishing to be bound by theory, PARP-1 may influence the function rather than the phenotype of MDSCs. […] As expected, MDSCs isolated from tumors of WT mice were effective at suppressing T-cell proliferation upon stimulation (FIG. 35G).

[3] = tested on: CD4+ T-enriched cells; conditions: cited from earlier work
[4] = tested on: MC-38 cell-based tumors; test: Immunoblot of protein extracts from MC-38 tumors; type: in vivo, mouse; conditions: olaparib 0.2 mg/kg, anti-PD1 100 μg, alone or combined
Experimental: (A) Protein extracts from MC-38 cells, RAW264.7 cells, or mouse embryonic fibroblasts derived from WT, PARP-1^+/−, or PARP-1^−/− mice were subjected to immunoblot analysis. (B) MC-38 cells (2.5×10^5) were injected s. c. into the left flanks of WT, PARP-1^+/− or PARP-1^−/− mice. Tumor sizes were measured at day 21. (C) Mice were sacrificed and tumor sections were subjected to H&E (left panels) or IHC straining (right panels) with antibodies to ICAM-1. (D) Spleen weight of mice from the different groups. (E) MC-38 cells were engrafted onto WT mice. […] Tumor volume was measured at the indicated days. (F) Mice were sacrificed at day 24 and tumor sections were subjected to IHC straining with antibodies to ICAM-1. (G) Sera from the different mouse groups were assessed for TNF-α, IL-6 or MCP-1 by ELISA. […] For (B), (D-E), and (G): p≤0.05; **, p≤0.01; ***, p≤0.001. Bar=50 μm.
Cell fractionation, protein extraction and immunoblot analysis—Tumor tissues or cells were harvested and homogenized in RIPA lysis buffer (Santa Cruz Biotechnology) containing a cocktail of protease and phosphatase inhibitors on ice. […] Protein expression signals developed by ECL (Pierce, ThermoFisher Scientific) were determined by a G:Box Gel Image Analysis System (Syngene, Cambridge, UK) equipped with the GeneSys image capture software.

[5] = tested on: bone marrow-derived MDSCs; test: Bone marrow-derived MDSC differentiation in vitro: viability and CD11b/Gr1 phenotype by FACS
[6] = tested on: CT-26 cell-based tumors; test: CT-26 cell-based colon carcinoma model in BALB/c mice; type: in vivo, mouse; conditions: low dose olaparib, anti-PD1, alone or combined
Text: Therefore, we used the more aggressive colon carcinoma cell line CT-26, which has a BALB/c genetic background.

SMILES: O=C(c1cc(Cc2n[nH]c(=O)c3ccccc23)ccc1F)N1CCN(C(=O)C2CC2)CC1 [olaparib]
- clinical outcome [1]: disappointing results
- capacity of tumor MDSCs to suppress T-cell proliferation ([2]; mice treated with 0.2 mg/kg): reduced capacity to suppress T-cell proliferation
- capacity of tumor MDSCs to suppress T-cell proliferation ([2]; mice treated with moderate dose 5 mg/kg): more pronounced effect
- percentage of CD25+/Foxp3+ Treg cells ([3]; higher concentration 5 μM): almost doubled the percentage
- CD25+/Foxp3+ Treg cell population ([3]; moderate concentration 1 μM): did not induce an increase
- PD-L1 in tumors [4]: increase in PD-L1
- overall activation of caspases-3, -7, -8 and -9 in tumors [4]: higher
- percentage of viable differentiated cells ([5]; 5 μM (FIG. 41A)): slight but statistically significant decrease in percentage of viable cells
- percentage of CD11b+/Gr1+ MDSCs ([5]; low concentration 4 nM): no effect
- percentage of CD11b+/Gr1+ MDSCs ([5]; moderate concentration 0.1 μM): no effect
- tumor size / tumor burden [6]: statistically significant reduction in tumor size
